Assay results published in article PMC6919601, “Identification of Plasmodium dipeptidyl aminopeptidase allosteric inhibitors by high throughput screening” (PLoS ONE, 2019).
“And” between values parts separate entries of the source, which are not always exact repeats. Equal values may be shown once. In all, about 110,000 compounds went through this assay and about 230 (0.21%) showed an effect of 50% or more. Some of the results follow.

biological target: DPAP1 (Plasmodium falciparum, UniProt Q8IIJ9); assay: primary screen, percent inhibition; read by cleavage of a fluorogenic dipeptide substrate; higher = more effect of the substance; design: species or system P. falciparum D10 trophozoite lysates; single well
Sequence (Q8IIJ9 whole entry, looked up): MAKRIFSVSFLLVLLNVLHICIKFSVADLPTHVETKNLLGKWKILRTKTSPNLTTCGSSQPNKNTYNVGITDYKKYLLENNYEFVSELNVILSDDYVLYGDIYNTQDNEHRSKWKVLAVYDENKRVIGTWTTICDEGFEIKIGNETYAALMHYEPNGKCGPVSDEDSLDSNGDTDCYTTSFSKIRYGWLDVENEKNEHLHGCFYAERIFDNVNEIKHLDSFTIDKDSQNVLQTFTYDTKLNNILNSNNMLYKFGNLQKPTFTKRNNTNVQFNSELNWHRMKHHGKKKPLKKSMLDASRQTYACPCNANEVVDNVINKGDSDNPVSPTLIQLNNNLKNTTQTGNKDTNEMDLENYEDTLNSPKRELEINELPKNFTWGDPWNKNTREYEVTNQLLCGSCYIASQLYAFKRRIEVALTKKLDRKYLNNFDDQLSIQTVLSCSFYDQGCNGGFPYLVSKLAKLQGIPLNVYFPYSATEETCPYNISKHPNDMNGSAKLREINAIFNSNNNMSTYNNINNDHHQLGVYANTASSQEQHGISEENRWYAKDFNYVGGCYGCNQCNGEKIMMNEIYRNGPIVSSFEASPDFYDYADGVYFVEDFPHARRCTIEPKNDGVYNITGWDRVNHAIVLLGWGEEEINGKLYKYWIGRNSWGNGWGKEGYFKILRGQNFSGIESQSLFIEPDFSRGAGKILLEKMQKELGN
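Further: 30 min substrate incubation versus DMSO and 10 µM JCP410 controls.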

First: CCOc1cc(Cl)c(C(C)NC(=O)c2ccccc2)cc1OCC (stereo not drawn)
Second: CCc1ccccc1NC(=O)c1ccc(OC)cc1
The “% Inhibition @ 10 uM” value of the first is higher: 6.92% for the first, 5.43% for the second.

First: CCC(c1nc2ccccc2n1C)C(O)c1ccccc1 (stereo not drawn)
Second: CSc1nc2ccccc2c(=O)n1Cc1ccccc1
The “% Inhibition @ 10 uM” value of the first is higher: 5.16% for the first, -2.94% for the second.

First: CCC(=O)Nc1nc(-c2ccccc2)ns1
Second: COc1ccccc1C(=O)NCc1cccs1
The “% Inhibition @ 10 uM” value of the first is lower: -6.55% for the first, -1.61% for the second.

Compared with `O=C(O)CCCC(=O)Nc1cc(C(F)(F)F)ccc1Cl`, `O=C(COc1cc(Cl)ccc1Cl)Nc1nc[nH]n1` is higher in “% Inhibition @ 10 uM” value: -2.63% for the first, 1.58% for the second.

Going from `CCOc1ccc(C2SC(NC(C)=O)=NN2C(C)=O)cc1` (stereo not drawn) to `COc1ccc(OC)c(C2OC(c3ccc(C)cc3)=NN2C(C)=O)c1` (stereo not drawn), the “% Inhibition @ 10 uM” value falls from 2.25% to -0.385%.

Compared with `NS(=O)(=O)c1ccc(NC(=O)COc2ccc(Br)cc2Cl)cc1`, `NS(=O)(=O)c1ccc(NC(=O)COc2ccc(Cl)cc2)cc1` is higher in “% Inhibition @ 10 uM” value: -0.185% for the first, 2.17% for the second.

Compared with `COc1cccc(NC(=O)c2ccc(N3C(=O)C4C5C=CC(C5)C4C3=O)cc2)c1` (stereo not drawn), `O=C(O)C1C2C=CC(C2)C1C(=O)Nc1ccccc1` (stereo not drawn) is higher in “% Inhibition @ 10 uM” value: -2.92% for the first, 1.64% for the second.

First: Cc1oc(-c2ccc(C(=O)NCCCc3ccccc3)cc2)nc1CS(=O)c1ccccc1 (stereo not drawn)
Second: Cc1cc(C(=O)NCCCc2ccccc2)n(-c2ccccc2)n1
The “% Inhibition @ 10 uM” value of the first is lower: -5.35% for the first, -3.7% for the second.

First: COc1ccc(CCNC(=O)c2ccc(Br)o2)cc1
Second: COc1ccc(NC(=O)c2ccc(C#N)cc2F)cc1
The “% Inhibition @ 10 uM” value of the first is lower: 0.163% for the first, 1.89% for the second.

First: O=C(Nc1ccccc1-n1cccc1)c1cccnc1
Second: O=C(/C=C/c1ccccc1Cl)c1cccnc1
The “% Inhibition @ 10 uM” value of the first is higher: -0.0555% for the first, -5.32% for the second.

First: CCC(C)NS(=O)(=O)c1ccc2[nH]c3c(c2c1)CCCC3 (stereo not drawn)
Second: Cc1nc2ccc(S(=O)(=O)NCC(=O)N3CCOCC3)cc2s1
The “% Inhibition @ 10 uM” value of the first is lower: 2.47% for the first, 4.14% for the second.

First: CC(C)c1ccc(C(=O)c2ccccc2C(=O)O)cc1
Second: CC(C)C[C@H](NC(=O)c1ccc(C(C)C)cc1)C(=O)NCC#N
The “% Inhibition @ 10 uM” value of the first is higher: 3.47% for the first, -1.5% for the second.

First: O=C(CCS(=O)(=O)c1cccc2nonc12)NCc1ccc(Cl)cc1
Second: COCc1cc(C)nc(SCC(=O)NCc2ccc(Cl)cc2)c1C#N
The “% Inhibition @ 10 uM” value of the first is higher: -1.2% for the first, -5.53% for the second.

Compared with `O=C(O)c1ccc(CNc2nc3ccc(Cl)cc3n3cnnc23)cc1`, `O=C(NCc1ccc2c(c1)OCO2)c1cc(-c2ccc(Cl)cc2)n[nH]1` is higher in “% Inhibition @ 10 uM” value: 4.33% for the first, 5.45% for the second.

First: NC(=O)c1c(NC(=O)CN2C(=O)c3ccccc3S2(=O)=O)sc2c1CCCC2
Second: Cc1nc2c(cc1C(=O)/C=C/c1cccc3ccccc13)CCCC2
The “% Inhibition @ 10 uM” value of the first is higher: 11.2% for the first, 1.08% for the second.

Compared with `COc1nc(CC(=O)C2CC2)nc(N(C)C(=O)NS(=O)(=O)c2ccccc2Cl)n1`, `COc1ccccc1CNC(=O)c1ccc(N(Cc2ccccc2Cl)S(C)(=O)=O)cc1` is higher in “% Inhibition @ 10 uM” value: -2.77% for the first, 18.7% for the second.

First: Nc1c(C(=O)NC2CCCC2)sc2nc(-c3ccc(F)cc3)ccc12
Second: COc1ccc(-c2c3c(nc4sc(C(C)=O)c(N)c24)CCCC3)cc1
The “% Inhibition @ 10 uM” value of the first is lower: -4.12% for the first, 5.18% for the second.

First: CCOC(=O)c1cnc2cc3c(cc2c1O)OCCO3
Second: O=c1c(-c2ccc3c(c2)OCCO3)coc2c(CN3CCCCC3)c(O)ccc12
The “% Inhibition @ 10 uM” value of the first is higher: 2.05% for the first, -1.82% for the second.

Compared with `COc1cc(C=O)ccc1OCc1nnnn1-c1ccccc1`, `COc1ccc(-c2nnc(SCC(=O)O)n2-c2cccc(C(F)(F)F)c2)cc1OC` is lower in “% Inhibition @ 10 uM” value: -4.64% for the first, -5.76% for the second.

Compared with `Nc1c(NCCc2ccccc2)c2ccccc2oc1=O`, `Cc1cccc(CCNC(=O)c2noc3c2COc2ccccc2-3)c1` is higher in “% Inhibition @ 10 uM” value: 3.47% for the first, 75.2% for the second.

Going from `Cc1ccccc1NC(=O)c1[nH]cnc1C(=O)Nc1ccccn1` to `CC(=O)Nc1cccc(NC(=O)C2c3ccccc3Oc3ccccc32)c1`, the “% Inhibition @ 10 uM” value falls from -3.85% to -5.14%.

Going from `COc1ccc(-c2ccc(C#N)c(SCC(=O)Nc3ncc(C)s3)n2)cc1OC` to `COc1ccc(C(=O)c2sc3nc(C)cc(C)c3c2N)cc1`, the “% Inhibition @ 10 uM” value rises from -0.68% to 0.751%.

Going from `CCCc1nc2c(C)cc(C)cc2c(N)c1CC` to `CCOC(=O)Nc1cc(=O)c2cc(C)ccc2o1`, the “% Inhibition @ 10 uM” value falls from 2.62% to -6.2%.

First: Cc1onc(-c2c(Cl)cccc2Cl)c1C(=O)NC1CCCC1
Second: Cc1cccc(N2CCN(C(=O)NC3CCCCC3)CC2)c1C
The “% Inhibition @ 10 uM” value of the first is higher: 0.177% for the first, -1.88% for the second.

First: Clc1ccc(OCCCn2ccnc2)cc1
Second: CCOc1ccc(-c2csc(-c3ccccn3)n2)cc1
The “% Inhibition @ 10 uM” value of the first is higher: 6.41% for the first, 2.62% for the second.

Compared with `Cc1n[nH]c(C)c1CCc1nc2c3ccccc3nc(NCc3cccnc3)n2n1`, `CCN1CCN(c2nc(-c3ccc(C(C)(C)C)cc3)nc3ccccc23)CC1` is lower in “% Inhibition @ 10 uM” value: 4.16% for the first, -4.93% for the second.

Compared with `Cc1ccc2nc(NC(=O)C3CCN(S(=O)(=O)c4cccnc4)CC3)sc2c1`, `O=C(Nc1ccc(S(=O)(=O)Nc2nccs2)cc1)c1ccco1` is higher in “% Inhibition @ 10 uM” value: -1.83% for the first, 0.851% for the second.

First: c1ccc(COc2cccc(CNCc3cccs3)c2)cc1
Second: O=C(Nc1ccc(Oc2ccccc2)cc1)c1cccs1
The “% Inhibition @ 10 uM” value of the first is lower: -5.32% for the first, -0.0953% for the second.

Going from `CC(NC(=O)CCC(=O)n1ncc2ccc(Cl)cc21)c1ccccc1` (stereo not drawn) to `O=C(CCC(=O)n1ncc2ccc(Cl)cc21)NCC1CCCO1` (stereo not drawn), the “% Inhibition @ 10 uM” value falls from 3.84% to -4.94%.

Compared with `CN(CCCNC(=O)CCn1c(=O)c2cccn2c2cccnc21)C1CCCCC1`, `COc1ccccc1CNC(=O)CCCCn1c(=O)[nH]c2ccsc2c1=O` is lower in “% Inhibition @ 10 uM” value: 2.83% for the first, 1.23% for the second.

First: CCn1c2ccccc2c2cc(CNC3CCCc4ccccc43)ccc21 (stereo not drawn)
Second: CS(=O)(=O)N(CC(O)Cn1c2ccccc2c2ccccc21)c1ccc(Cl)cc1 (stereo not drawn)
The “% Inhibition @ 10 uM” value of the first is lower: -3.74% for the first, -2.74% for the second.

Compared with `Cc1ccccc1Oc1cc(-n2ncc(C(N)=O)c2N)ncn1`, `Cc1ccc(Oc2coc3cc(OCC(=O)Nc4ccccc4)ccc3c2=O)cc1` is higher in “% Inhibition @ 10 uM” value: 1.92% for the first, 3.04% for the second.

Going from `C/C(=C(/NC(=O)c1ccccc1)C(=O)NCc1ccccc1)c1ccccc1` to `COc1ccc(NC(=O)/C(=C\c2ccccc2OC)NC(=O)c2ccccc2)cc1`, the “% Inhibition @ 10 uM” value rises from -4.67% to -2.89%.

First: CN1CCN(C(=O)CCCc2cn(Cc3ccc(F)cc3)c3ccccc23)CC1
Second: COc1ccc(CC(=O)N2CCN(Cc3noc(CCC(=O)N(C)Cc4ccccc4)n3)CC2)cc1
The “% Inhibition @ 10 uM” value of the first is lower: -8.65% for the first, -2.18% for the second.

First: CCC(C(=O)O)N1C(=O)c2ccccc2C1O (stereo not drawn)
Second: C/C=C(\C)CC(NC(=O)OCc1ccccc1)C(=O)NCC#N (stereo not drawn)
The “% Inhibition @ 10 uM” value of the first is higher: -1.03% for the first, -4.93% for the second.

First: CCCCNC(=O)Cn1ncc2c(C)n(Cc3ccccc3F)c(C)c2c1=O
Second: CCC(C)c1ccc(NC(=O)Cn2nc(C(F)F)cc2C)cc1 (stereo not drawn)
The “% Inhibition @ 10 uM” value of the first is lower: -2.17% for the first, 12.1% for the second.

Compared with `COc1ccccc1N1C(=O)C2CCC(c3ccccc3)CC2C1=O` (stereo not drawn), `C/C(=N\c1cccc2ccccc12)C1=C(O)CC(c2ccccc2)CC1=O` (stereo not drawn) is higher in “% Inhibition @ 10 uM” value: -5.83% for the first, 0.746% for the second.

Going from `C=CCOc1ccc(/C=C2\SC(NC(=O)c3ccc(C)cc3)=C(C(=O)OCC)C2=O)cc1OC` to `COc1cc(OC)c(/C=C2\S/C(=N/c3ccc(C(=O)O)cc3)N(C)C2=O)cc1Br`, the “% Inhibition @ 10 uM” value rises from 4.74% to 9.67%.

First: Cc1ccc(NS(=O)(=O)c2cc(C(=O)Nc3ccccc3C(=O)O)ccc2Br)cc1
Second: CC(=O)Nc1ccc(NS(=O)(=O)c2ccc(F)cc2)cc1
The “% Inhibition @ 10 uM” value of the first is higher: 5.63% for the first, 2.7% for the second.

Going from `COc1cccc(C2CC(=O)NC(SCC(=O)NC3CCCCC3)=C2C#N)c1OC` (stereo not drawn) to `CNC(=O)c1oc2ccc3c(c2c1C)C(=O)CC1(CCCCC1)O3`, the “% Inhibition @ 10 uM” value rises from 0.343% to 2.27%.

Going from `COc1ccc(-n2ncc(C(=O)NCCN3CCCC3)c2C2CCN(C(=O)OC(C)(C)C)CC2)cc1` to `O=C(NCCCN1CCCCC1)C1CCN(S(=O)(=O)N2CCC3(CC2)OCCO3)CC1`, the “% Inhibition @ 10 uM” value falls from -4.41% to -4.83%.

Compared with `O=c1c2ccccc2c2ccccc2c(=O)n1-c1ccc2c(c1)OCO2`, `COc1cccc2c1OC(c1cccc(OC)c1OC)N1N=C(c3ccccc3O)CC21` (stereo not drawn) is higher in “% Inhibition @ 10 uM” value: -5.4% for the first, 0.0719% for the second.

First: COc1cc(C(=O)N2CCN(C(=O)c3cc(-c4ccccc4)[nH]n3)CC2)cc(OC)c1OC
Second: COc1cc(C(=O)Nc2cc(OC)c(OC)c(OC)c2)ccc1OC(F)F
The “% Inhibition @ 10 uM” value of the first is lower: 1.51% for the first, 2.4% for the second.

Going from `Cc1[nH]c(O)nc1CN1CCCCC1` to `Cc1cc[n+](CC(=O)N2CCCCC2)c(C)c1`, the “% Inhibition @ 10 uM” value falls from 2.39% to -3.19%.

Going from `CCOC(=O)N1CCC(NCC2CCCO2)CC1` (stereo not drawn) to `CCOC(=O)c1nnn(-c2nonc2N)c1CN1CCN(CCO)CC1`, the “% Inhibition @ 10 uM” value falls from 1.88% to -1.6%.

First: CCCCC(NC(=O)[C@H](CC(C)C)NC(=O)OCc1ccccc1)C(=O)c1nnc(-c2cccnc2)o1 (stereo partly drawn)
Second: O=C(c1ccccc1)N1CC(=O)N(OCc2ccccc2)C1c1cccs1 (stereo not drawn)
The “% Inhibition @ 10 uM” value of the first is lower: -3.48% for the first, -0.597% for the second.

Compared with `N#CC1=C(N)OC2=C(C(=O)CCC2)C12C(=O)Nc1ccccc12` (stereo not drawn), `O=C(Cn1cc(SCc2c(F)cccc2Cl)c2ccccc21)N1CCOCC1` is higher in “% Inhibition @ 10 uM” value: -3.78% for the first, 5.27% for the second.

First: COc1ccc(-n2c(C)cc(/C=C(/C#N)C(=O)Nc3ccc(Cl)cc3)c2C)cc1
Second: Cc1ccc(S(=O)(=O)N(CC(=O)N(C)C)c2cc(Cl)ccc2C)cc1
The “% Inhibition @ 10 uM” value of the first is lower: -6.22% for the first, 1.57% for the second.

First: O=C1C=C(N(CCO)CCO)C2(CCCCC2)O1
Second: O=S(=O)(NC1CCCCCC1)c1ccc(Cl)cc1
The “% Inhibition @ 10 uM” value of the first is higher: -2.47% for the first, -2.6% for the second.

Compared with `CC(=O)N1CCN(c2cc(N3CCCCC3)c(F)cc2[N+](=O)[O-])CC1`, `CC(C)CCn1nnc2sc3c(c2c1=O)CCC(C)C3` (stereo not drawn) is lower in “% Inhibition @ 10 uM” value: 2.05% for the first, -6.78% for the second.

With `O=C(O)CCc1ccc(-c2ccc(O)cc2)cc1` the “% Inhibition @ 10 uM” value was 2.13%.

For `Nc1ccc(-c2nc3cc(N)ccc3[nH]2)cc1`, the “% Inhibition @ 10 uM” value was -1.86% and 1.13%.
